Consider 92 sequences from the supplement of paper PMC10338343.

± gives the standard deviation. In all, about 5,500 sequences were measured (“pre-steady-state target cleavage rate”: median about 0.1, highest 2% from about 0.64 on). The entries are a selection whose mix differs from that of the whole data set.

For the assay, the system named is MIWI (PIWIL1) piRISC loaded with piRNA #2 (30 nt). The assay is described as follows: pre-steady-state target cleavage rate (min^-1); MIWI and MILI are mouse PIWI proteins and EfPiwi is from a freshwater sponge; tags in brackets are library labels; higher = faster piRNA-guided slicing of the target. To be noted: guide: piRNA #2 5'p-UUAGGUAACCCAGUAGAUCCAGAGGAAUUC; auxiliary factor: 500 nM mouse GTSF1. The method in brief: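 Using HEPES–potassium acetate buffer at 33 °C, 1 nM active affinity-purified piRISC with a single synthetic guide was mixed with 0.1 nM transcribed, DNA-blocked target RNA library for 0–8 or 0–960 min, with or without 500 nM GTSF1 partner protein. Uncleaved targets were sequenced and normalised to depth and to weakly complementary targets, and three trials were pooled with k3 capped at 0.0001 min^-1. A burst-and-steady-state fit gave the pre-steady-state cleavage rate.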
For CUUAAGGAGUGGUUCUACAGGGUUACCUAA, the “pre-steady-state target cleavage rate” value is 0.00873 ± 0.0022.
To CAAUUCCUCAGGAUCAACUGGGUUACCUAA belongs 0.526 ± 0.058; to CUUAAGGUGCUGGAUCUACUGGGUUACCUAA, 0.152 ± 0.017.
For CUUAACCUCUGCAUCUACUGGGUUACCUUA the value was 0.129 ± 0.018; for CUUAAGCUCUGGCAUCUACUGGGUUACCUAA, 0.14 ± 0.026; for CUUAAGGUCUGGAUCUUCUGGGUUAGCUAA, 0.0288 ± 0.0091.
To CUUAAGCUAUGGAUCUACUGGGUUACCUAA belongs 0.298 ± 0.036; to CUUAUCCUCUGGAUCUAUGGGUUACCUAA, 0.011 ± 0.0027.
Consider GAAUUGGUCUGGAUCUACUGGGUUACCUAA, for which the “pre-steady-state target cleavage rate” value is 0.0831 ± 0.027.
To CUUAUCCUCUGGAUCUACUGGGAUUACCUAA belongs 0.16 ± 0.037; to CUUAUCCUCUGGAUCUACUGGGUUCCCUAA, 0.241 ± 0.043.
To CUUAAGCUCUGGAUCUACUGGGUUACAUAA belongs 0.53 ± 0.051; to CUUAAGCUCUGGAUGUACUGGGUUAGCUAA, 0.0878 ± 0.011.
To GAAUUCCUCUGCAUCUACUGGGUUUCCUAA belongs 0.259 ± 0.061.
As for CUUAAGGUCUGGUUCUACUGGGUUACCUUA, the “pre-steady-state target cleavage rate” value amounted to 0.0228 ± 0.0053.
For the sequence “CUAUUCCUCUGGAUCUAGACCCAAUGGAUA [g14:g28:cont:t1A]”, the “pre-steady-state target cleavage rate” value was under 0.0001.
To CUUAAGGUCUGGAUGAACUGGGUUACCUAA belongs 0.0299 ± 0.029.
For CAAUUCCUCUGGUUCAACUGGGUUACCUAA the value was 0.625 ± 0.046; for CUUAAGGAGUGGAUCUACUGGGUGUACCUAA, 0.0301 ± 0.013; for CUUAAGGAGUGGAUCUACUGGGUUACCUA, 0.115 ± 0.021.
For CUAUUGCUCUGGAACUACUGGGUUACCUAA the value was 0.212 ± 0.034; for CUUAUCCUCUGGAACUACUGGGUAACCUAA, 0.116 ± 0.017; for CUUAUCCUGUGGAACUACUGGGUUACCUAA, 0.157 ± 0.049.
As to CUAUUCCUCUGGAUCUACUGGGUUACGAUA, the “pre-steady-state target cleavage rate” value was 0.284 ± 0.057.
CUAUUCCUCUCGAUCUACUGGGUUACCUAA: the “pre-steady-state target cleavage rate” value turned out to be 0.734 ± 0.063.
Regarding CUUUUCCUCUGGAUGUACUGGGUUACCUAA, the “pre-steady-state target cleavage rate” value is 0.464 ± 0.038.
On to CUAUUCCUCUGGAUCUACUGCGUUUCCUAA, for which the “pre-steady-state target cleavage rate” value is 0.0815 ± 0.022.
To CUUAACCUGAGGAUCUACUGGGUUACCUAA belongs 0.0797 ± 0.012; to GAAUUCCUCUGGAUCGUACUGGGUUACCUAA, 0.00833 ± 0.0048.
For CUUAUCCUCUGCUUCUACUGGGUUACCUAA the value was 0.318 ± 0.031; for CUUAACCACUCGAUCUACUGGGUUACCUAA, 0.347 ± 0.028; for CUUUUCCUGUGGAUCUACAGGGUUACCUAA, 0.288 ± 0.02.
For CAAUUCCUCUAGGAUCUACUGGGUUACCUAA the value was 0.434 ± 0.048.
With CUUAAGGUCUGCAUCAACUGGGUUACCUAA, the “pre-steady-state target cleavage rate” value was found to be 0.0597 ± 0.029.
For GAAUUCCUCUGGAUGUACUGGGUUACGUAA, the “pre-steady-state target cleavage rate” value was 0.549 ± 0.042.
To CUUAAGGAGUGGAUCUACUGGGUAUACCUAA belongs 0.0219 ± 0.0075.
For CAAUUCCUCUGGAUCAACUGGGUUACCAAA the value was 0.353 ± 0.054; for CUUAAGGUCAGGAUCUACUGGCUUACCUAA, 0.0146 ± 0.0098.
To CUUAAGGAGUGGAUCAACUGCGUUACCUAA belongs 0.00804 ± 0.0051; to CUUAAGGUCUAGGAUCUACUGGGUUACCUAA, 0.0921 ± 0.021; to CUUAAGGUGUGGAUCUACUGGCUUACCUAA, 0.0225 ± 0.015.
Take GAUUUCCUCUGGAUCUACUGGGUUUCCUAA: the “pre-steady-state target cleavage rate” value amounted to 0.155 ± 0.033.
For CUUAAGGAGAGGAUCUACAGCGUUACCUAA the value was 0.00335 ± 0.0028; for CAAUUCCUCUGGAUCUACUGGGUUACCUAAA, 0.466 ± 0.063; for CUUAUCCUCUGGAUCUACUGGGUAAGCUAA, 0.189 ± 0.052.
For GAAUACCUCUGGAUCUACUGCGUUACCUAA, the “pre-steady-state target cleavage rate” value was 0.456 ± 0.04.
To CUUAUCCUCUGGAUCUUCUGGGUAACCUAA belongs 0.0522 ± 0.013; to CAAUUCGUCUGGAUCUACUCGGUUACCUAA, 0.0421 ± 0.022.
For CUUAAGGUCUGGAUCUACUGGGUUACUUAA the value was 0.422 ± 0.044; for CAAUUCCUCUGGAUCUACUGGGUUACCUA, 0.484 ± 0.057.
To CUUAAGGAGACGAUCUACUGGGUUACGUAA belongs 0.00601 ± 0.003; to CAAUACCUCUGGAUCUACUGGGUUACCUAA, 0.395 ± 0.06.
With CUAUUGCUCUGGAUCUACUGGGAUACCUAA, the “pre-steady-state target cleavage rate” value amounted to 0.142 ± 0.029.
To CUUAUCCUCACCAUCUACUGGGUUACCUAA belongs 0.246 ± 0.038; to CUUAACCUCUGCAUCUACUGGGUUACCAAA, 0.133 ± 0.02.
For CAAUUCCUCUGGAUCUAGUGGGUUACCUAA the value was 0.239 ± 0.031.
To CUUAAGGUCAGGAUCUACUGGGUUAGCUAA belongs 0.00922 ± 0.0075; to CUUAACCUUCUGGAUCUACUGGGUUACCUAA, 0.281 ± 0.028; to CUAUUCCUCUCGAUCUACUGGGUUAGCUAA, 0.522 ± 0.044.
CUUUUCUUCUGGAUCUACUGGGUUACCUAA: the “pre-steady-state target cleavage rate” value came to 0.428 ± 0.038.
To CUUAACCUCUGGAUGAUCUGGGUUACCUAA belongs 0.0136 ± 0.003; to CUUUUCCUCUCGAUCUACUCGGUUACCUAA, 0.185 ± 0.013; to CUUAACCUCUGGAUCUACUGCGUUACCUUA, 0.231 ± 0.027.
To CUUAACCUCUCGAUCUACUGGGUUACCUUA belongs 0.373 ± 0.034; to CUUAUCCUCUGGAUGUACUGGGUAACCUAA, 0.131 ± 0.04; to CAAUUCCUCUGGAUCUACUCGGUUACGUAA, 0.127 ± 0.061.
To CUUAAGGAGUGGAUCUACUGGGUUACCGUAA belongs 0.0283 ± 0.01.
With CUUAACCACUGGAUCAACUGGGUUACCUAA, the “pre-steady-state target cleavage rate” value stood at 0.232 ± 0.019.
To CUAUUCCUCUCGAUCUACUGGGAUACCUAA belongs 0.523 ± 0.032; to CUUAAGGACUGGAUCUAGUGGGUUACCUUA, 0.0229 ± 0.011; to CUUAACCUCUGGAUCAACUGGGUAACCUAA, 0.0539 ± 0.0079.
For CUUAUCCUCUCGAACUACUGGGUUACCUAA the value was 0.365 ± 0.03; for CUUAACCUCUGGAUCUACUGGGUUACCUCA, 0.122 ± 0.016.
To GAAUUCCUCUGGAUCUUCUCGGUUACCUAA belongs 0.0738 ± 0.018; to CUUAAGGAGUGGAUCUACUGGGUUGACCUAA, 0.09 ± 0.028; to CAAUUCCACUGGAUCUACUGGGUUACCAAA, 0.456 ± 0.083.
In the case of CUUAACCUCCGGAUCUACUGGGUUACCUAA, the “pre-steady-state target cleavage rate” value is 0.4 ± 0.059.
For CUAUUCCUCUGGUUCUACUGGGAUACCUAA the value was 0.125 ± 0.036; for CUUAAGGACUGGAUCUAGUGGGUUACCUAA, 0.0778 ± 0.026; for CUUAACCUCUGGAUCUACUGGGAUACCAAA, 0.0873 ± 0.019.
For GAAUUCCUCUGGUUCAACUGGGUUACCUAA the value was 0.524 ± 0.042; for GAAUUCCGUCUGGAUCUACUGGGUUACCUAA, 0.483 ± 0.044.
To CUUAAGGAGAGGUUCUACUGGGUUACCUUA belongs 0.00328 ± 0.0022; to CUAUUCCUCUGGUUCUACUGGGUUACCUAA, 0.711 ± 0.043.
As to CUUUUCCUCUGGAUGUACUCGGUUACCUAA, the “pre-steady-state target cleavage rate” value came to 0.0968 ± 0.023.
To GAAUUCCACUGGAUCUACUGGGUUACGUAA belongs 0.803 ± 0.043; to CUUAACCUCUGGAUGUAGUGGGUUACCUAA, 0.0937 ± 0.011; to CUUAACCUCUGGAUGUACUGGGUUUCCUAA, 0.069 ± 0.015.
For CUUAACCUCAGGAUCUACUGGGUUACGUAA the value was 0.289 ± 0.038.
For CUUAAGCUCUGGAUCAACUGGGUUACCUAA the value was 0.0889 ± 0.013.
Consider CAAUUCCUCUGGAUCUACUCGGUUACCUAA, for which the “pre-steady-state target cleavage rate” value is 0.103 ± 0.022.
For CUUUUCCUCUGGAUCUACUGGGUUACGCUAA the value was 0.601 ± 0.049.
